Reference: the supplement of paper PMC12015411
± gives the standard deviation of the averaged measurements. Bacterial growth in Mueller-Hinton broth at 37 °C with the drug at the dose given, alone or with nitroxoline. Checkerboards on E. coli BW25113: OD600 at the end of exponential growth as a fraction of no-drug wells. Colistin series: OD595 at 10.75 h as a fraction of the colistin-free well. 1 = full growth, lower = more inhibition. No active / inactive call per well. Checkerboard doses stop near each drug's IC75, and their values pile up at 1, as if capped there. Colistin and gentamicin are mixtures; one drawing stands for each.

System: Escherichia coli BW25113
Assay: growth relative to no-drug wells (fraction of no-drug control); higher = more growth, less inhibition
Description: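 8 x 8 checkerboard in cation-adjusted Mueller-Hinton broth at 37 °C; OD600 at the end of exponential growth as a fraction of no-drug wells, two biological replicates.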

CC(=O)Nc1c2sscc-2n(C)c1=O [Thiolutin] + Oc1ccc([N+](=O)[O-])c2cccnc12 [nitroxoline]
growth (nitroxoline concentration 0.136 µg/ml, 0.0088 µg/ml): 1
growth (nitroxoline concentration 0.136 µg/ml, 0.015 µg/ml): 1
growth (nitroxoline concentration 0.136 µg/ml, 0.0175 µg/ml): 1
growth (nitroxoline concentration 0.136 µg/ml, 0.03 µg/ml): 1
growth (nitroxoline concentration 0.136 µg/ml, 0.035 µg/ml): 1
growth (nitroxoline concentration 0.136 µg/ml, 0.06 µg/ml): 0.964 ± 0.051
growth (nitroxoline concentration 0.136 µg/ml, 0.07 µg/ml): 0.981 ± 0.027
growth (nitroxoline concentration 0.255 µg/ml, 0.0088 µg/ml): 1
growth (nitroxoline concentration 0.255 µg/ml, 0.015 µg/ml): 1
growth (nitroxoline concentration 0.255 µg/ml, 0.0175 µg/ml): 1
growth (nitroxoline concentration 0.255 µg/ml, 0.03 µg/ml): 1
growth (nitroxoline concentration 0.255 µg/ml, 0.035 µg/ml): 1
growth (nitroxoline concentration 0.255 µg/ml, 0.06 µg/ml): 1
growth (nitroxoline concentration 0.255 µg/ml, 0.07 µg/ml): 1
growth (nitroxoline concentration 0.374 µg/ml, 0.0088 µg/ml): 0.819 ± 0.076
growth (nitroxoline concentration 0.374 µg/ml, 0.015 µg/ml): 0.845 ± 0.22
growth (nitroxoline concentration 0.374 µg/ml, 0.0175 µg/ml): 0.944 ± 0.052
growth (nitroxoline concentration 0.374 µg/ml, 0.03 µg/ml): 0.932 ± 0.097
growth (nitroxoline concentration 0.374 µg/ml, 0.035 µg/ml): 0.991 ± 0.013
growth (nitroxoline concentration 0.374 µg/ml, 0.06 µg/ml): 0.9 ± 0.13
growth (nitroxoline concentration 0.374 µg/ml, 0.07 µg/ml): 0.808 ± 0.11
growth (nitroxoline concentration 0.493 µg/ml, 0.0088 µg/ml): 0.498 ± 0.14
growth (nitroxoline concentration 0.493 µg/ml, 0.015 µg/ml): 0.607 ± 0.17
growth (nitroxoline concentration 0.493 µg/ml, 0.0175 µg/ml): 0.648 ± 0.067
growth (nitroxoline concentration 0.493 µg/ml, 0.03 µg/ml): 0.722 ± 0.11
growth (nitroxoline concentration 0.493 µg/ml, 0.035 µg/ml): 0.769 ± 0.062
growth (nitroxoline concentration 0.493 µg/ml, 0.06 µg/ml): 0.731 ± 0.12
growth (nitroxoline concentration 0.493 µg/ml, 0.07 µg/ml): 0.574 ± 0.021
growth (nitroxoline concentration 0.612 µg/ml, 0.0088 µg/ml): 0.4921 ± 0.0015
growth (nitroxoline concentration 0.612 µg/ml, 0.015 µg/ml): 0.53 ± 0.053
growth (nitroxoline concentration 0.612 µg/ml, 0.0175 µg/ml): 0.513 ± 0.059
growth (nitroxoline concentration 0.612 µg/ml, 0.03 µg/ml): 0.548 ± 0.035
growth (nitroxoline concentration 0.612 µg/ml, 0.035 µg/ml): 0.58 ± 0.13
growth (nitroxoline concentration 0.612 µg/ml, 0.06 µg/ml): 0.503 ± 0.064
growth (nitroxoline concentration 0.612 µg/ml, 0.07 µg/ml): 0.471 ± 0.11
growth (nitroxoline concentration 0.731 µg/ml, 0.0088 µg/ml): 0.373 ± 0.037
growth (nitroxoline concentration 0.731 µg/ml, 0.015 µg/ml): 0.462 ± 0.069
growth (nitroxoline concentration 0.731 µg/ml, 0.0175 µg/ml): 0.401 ± 0.022
growth (nitroxoline concentration 0.731 µg/ml, 0.03 µg/ml): 0.429 ± 0.081
growth (nitroxoline concentration 0.731 µg/ml, 0.035 µg/ml): 0.46 ± 0.0052
growth (nitroxoline concentration 0.731 µg/ml, 0.06 µg/ml): 0.403 ± 0.016
growth (nitroxoline concentration 0.731 µg/ml, 0.07 µg/ml): 0.387 ± 0.047
growth (nitroxoline concentration 0.85 µg/ml, 0.0088 µg/ml): 0.303 ± 0.024
growth (nitroxoline concentration 0.85 µg/ml, 0.015 µg/ml): 0.2615 ± 0.0013
growth (nitroxoline concentration 0.85 µg/ml, 0.0175 µg/ml): 0.285 ± 0.078
growth (nitroxoline concentration 0.85 µg/ml, 0.03 µg/ml): 0.286 ± 0.091
growth (nitroxoline concentration 0.85 µg/ml, 0.035 µg/ml): 0.26 ± 0.13
growth (nitroxoline concentration 0.85 µg/ml, 0.06 µg/ml): 0.295 ± 0.12
growth (nitroxoline concentration 0.85 µg/ml, 0.07 µg/ml): 0.324 ± 0.056

CN(C)c1cc(NC(=O)CNC(C)(C)C)c(O)c2c1C[C@H]1C[C@H]3[C@H](N(C)C)C(O)=C(C(N)=O)C(=O)[C@@]3(O)C(O)=C1C2=O [Tigecycline]
growth (nitroxoline concentration 0 µg/ml, 0.0125 µg/ml): 0.947 ± 0.048
growth (nitroxoline concentration 0 µg/ml, 0.0215 µg/ml): 0.946 ± 0.07
growth (nitroxoline concentration 0 µg/ml, 0.025 µg/ml): 1
growth (nitroxoline concentration 0 µg/ml, 0.043 µg/ml): 0.957 ± 0.061
growth (nitroxoline concentration 0 µg/ml, 0.05 µg/ml): 1
growth (nitroxoline concentration 0 µg/ml, 0.086 µg/ml): 0.9982 ± 0.0025
growth (nitroxoline concentration 0 µg/ml, 0.1 µg/ml): 0.959 ± 0.058

CN(C)c1cc(NC(=O)CNC(C)(C)C)c(O)c2c1C[C@H]1C[C@H]3[C@H](N(C)C)C(O)=C(C(N)=O)C(=O)[C@@]3(O)C(O)=C1C2=O [Tigecycline] + Oc1ccc([N+](=O)[O-])c2cccnc12 [nitroxoline]
growth (nitroxoline concentration 0.136 µg/ml, 0.0125 µg/ml): 1
growth (nitroxoline concentration 0.136 µg/ml, 0.0215 µg/ml): 1
growth (nitroxoline concentration 0.136 µg/ml, 0.025 µg/ml): 1
growth (nitroxoline concentration 0.136 µg/ml, 0.043 µg/ml): 1
growth (nitroxoline concentration 0.136 µg/ml, 0.05 µg/ml): 1
growth (nitroxoline concentration 0.136 µg/ml, 0.086 µg/ml): 1
growth (nitroxoline concentration 0.136 µg/ml, 0.1 µg/ml): 1
growth (nitroxoline concentration 0.255 µg/ml, 0.0125 µg/ml): 1
growth (nitroxoline concentration 0.255 µg/ml, 0.0215 µg/ml): 1
growth (nitroxoline concentration 0.255 µg/ml, 0.025 µg/ml): 1
growth (nitroxoline concentration 0.255 µg/ml, 0.043 µg/ml): 1
growth (nitroxoline concentration 0.255 µg/ml, 0.05 µg/ml): 1
growth (nitroxoline concentration 0.255 µg/ml, 0.086 µg/ml): 0.989 ± 0.015
growth (nitroxoline concentration 0.255 µg/ml, 0.1 µg/ml): 0.897 ± 0.15
growth (nitroxoline concentration 0.374 µg/ml, 0.0125 µg/ml): 0.859 ± 0.2
growth (nitroxoline concentration 0.374 µg/ml, 0.0215 µg/ml): 0.862 ± 0.091
growth (nitroxoline concentration 0.374 µg/ml, 0.025 µg/ml): 0.862 ± 0.034
growth (nitroxoline concentration 0.374 µg/ml, 0.043 µg/ml): 0.86 ± 0.091
growth (nitroxoline concentration 0.374 µg/ml, 0.05 µg/ml): 0.883 ± 0.043
growth (nitroxoline concentration 0.374 µg/ml, 0.086 µg/ml): 0.814 ± 0.15
growth (nitroxoline concentration 0.374 µg/ml, 0.1 µg/ml): 0.77 ± 0.33
growth (nitroxoline concentration 0.493 µg/ml, 0.0125 µg/ml): 0.673 ± 0.046
growth (nitroxoline concentration 0.493 µg/ml, 0.0215 µg/ml): 0.6763 ± 0.0053
growth (nitroxoline concentration 0.493 µg/ml, 0.025 µg/ml): 0.6776 ± 0.0039
growth (nitroxoline concentration 0.493 µg/ml, 0.043 µg/ml): 0.72 ± 0.024
growth (nitroxoline concentration 0.493 µg/ml, 0.05 µg/ml): 0.754 ± 0.085
growth (nitroxoline concentration 0.493 µg/ml, 0.086 µg/ml): 0.713 ± 0.27
growth (nitroxoline concentration 0.493 µg/ml, 0.1 µg/ml): 0.696 ± 0.43
growth (nitroxoline concentration 0.612 µg/ml, 0.0125 µg/ml): 0.583 ± 0.059
growth (nitroxoline concentration 0.612 µg/ml, 0.0215 µg/ml): 0.552 ± 0.063
growth (nitroxoline concentration 0.612 µg/ml, 0.025 µg/ml): 0.602 ± 0.013
growth (nitroxoline concentration 0.612 µg/ml, 0.043 µg/ml): 0.628 ± 0.14
growth (nitroxoline concentration 0.612 µg/ml, 0.05 µg/ml): 0.647 ± 0.24
growth (nitroxoline concentration 0.612 µg/ml, 0.086 µg/ml): 0.614 ± 0.44
growth (nitroxoline concentration 0.612 µg/ml, 0.1 µg/ml): 0.616 ± 0.37
growth (nitroxoline concentration 0.731 µg/ml, 0.0125 µg/ml): 0.493 ± 0.063
growth (nitroxoline concentration 0.731 µg/ml, 0.0215 µg/ml): 0.492 ± 0.028
growth (nitroxoline concentration 0.731 µg/ml, 0.025 µg/ml): 0.517 ± 0.054
growth (nitroxoline concentration 0.731 µg/ml, 0.043 µg/ml): 0.567 ± 0.094
growth (nitroxoline concentration 0.731 µg/ml, 0.05 µg/ml): 0.581 ± 0.23
growth (nitroxoline concentration 0.731 µg/ml, 0.086 µg/ml): 0.543 ± 0.46
growth (nitroxoline concentration 0.731 µg/ml, 0.1 µg/ml): 0.482 ± 0.33
growth (nitroxoline concentration 0.85 µg/ml, 0.0125 µg/ml): 0.484 ± 0.089
growth (nitroxoline concentration 0.85 µg/ml, 0.0215 µg/ml): 0.514 ± 0.19
growth (nitroxoline concentration 0.85 µg/ml, 0.025 µg/ml): 0.532 ± 0.2
growth (nitroxoline concentration 0.85 µg/ml, 0.043 µg/ml): 0.51 ± 0.2
growth (nitroxoline concentration 0.85 µg/ml, 0.05 µg/ml): 0.523 ± 0.21
growth (nitroxoline concentration 0.85 µg/ml, 0.086 µg/ml): 0.426 ± 0.29
growth (nitroxoline concentration 0.85 µg/ml, 0.1 µg/ml): 0.447 ± 0.3
